Lines with a small IC50 respond at low doses; where the fit passes the top or lowest dose, that dose stands as a limit. AUC sums up the same curve from the lowest dose to the 256-fold higher top dose: 1 means no effect, lower means more sensitive. For part of these data: An inferred top dose was calculated from the reported fits. For part of these data: Where an entry number is given, a second screen of the drug exists; the two often differ.
How the values were obtained:
Assay in all cases: Viability of human cancer cell lines after 72 h of drug (GDSC screen)
[1] = compound: COC(=O)[C@H](CCSC)NC(=O)c1ccc(NC[C@@H](N)CS)cc1-c1ccccc1 [FTI-277]; conditions: top dose 1.024 µM; top dose inferred
Procedure: (§1)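 Human cancer cell lines in 384-well plates, medium with 10% serum, drug for 72 h over a 256-fold dose range (nine 2-fold or five 4-fold steps up to the top dose). Adherent lines were fixed and stained with the nucleic acid dye Syto60, suspension lines read with resazurin; signal relative to control wells, capped at 0 and 100%. One two-parameter sigmoid per drug and line, fitted in a mixed model over all curves with the slope shared within a line.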

[2] = compound: C[C@]1(O)C[C@@H](c2nc(-c3ccc4ccc(-c5ccccc5)nc4c3)c3c(N)nccn32)C1 [OSI-906]; conditions: top dose 2.56 µM; top dose inferred
Procedure: as §1

[3] = compound: c1ccc2c(CCNc3ccc(Nc4ccncc4)cc3)c[nH]c2c1 [JNJ-26854165]; conditions: top dose 10 µM
Procedure: as §1

[4] = compound: Cc1sc2c(c1C)C(c1ccc(Cl)cc1)=N[C@@H](CC(=O)OC(C)(C)C)c1nnc(C)n1-2 [JQ1]
Procedure: as §1

[5] = compound: CC1(C)CNc2cc(NC(=O)c3cccnc3NCc3ccncc3)ccc21 [AMG-706]; conditions: top dose 2 µM; top dose inferred
Procedure: as §1

[6] = compound: OCCCNc1cc(-c2ccnc(Nc3cccc(Cl)c3)n2)ccn1 [CGP-60474]; conditions: top dose 0.256 µM; top dose inferred
Procedure: as §1

[7] = compound: CN1CCN(c2ccc([N+](=O)[O-])c3no[n+]([O-])c23)CC1 [NSC-207895]; conditions: top dose 20 µM; top dose inferred
Procedure: as §1

[8] = compound: Cc1ccc(C(=O)N(CCCN)[C@@H](c2nc3cc(Cl)ccc3c(=O)n2Cc2ccccc2)C(C)C)cc1 [SB-715992]; conditions: top dose 0.128 µM; top dose inferred
Procedure: as §1

[9] = compound: COCC[n+]1c2c(n(Cc3cnccn3)c1C)C(=O)c1ccccc1C2=O [YM155]; conditions: top dose 5.12 µM
Procedure: as §1

[10] = compound: CC(=O)O[C@@]12CO[C@@H]1C[C@H](O)[C@@]1(C)C(=O)[C@H](O)C3=C(C)[C@@H](OC(=O)[C@H](O)[C@@H](NC(=O)OC(C)(C)C)c4ccccc4)C[C@@](O)([C@@H](OC(=O)c4ccccc4)[C@H]21)C3(C)C [Docetaxel]; conditions: top dose 0.0125 µM
Procedure: as §1

[11] = compound: CCOc1nc(NC(=O)Cc2cc(OC)ccc2OC)cc(N)c1C#N [JNK Inhibitor VIII]; conditions: top dose 10 µM; top dose inferred
Procedure: as §1

[12] = compound: CC1=C2C[C@H]3[C@@H](CC=C4C[C@@H](O)CC[C@@]43C)[C@@H]2CC[C@]12O[C@@H]1C[C@H](C)CN[C@H]1[C@H]2C [Cyclopamine]; conditions: top dose 16 µM; top dose inferred
Procedure: as §1

[13] = compound: O=C(/C=C/c1cccc(S(=O)(=O)Nc2ccccc2)c1)NO [Belinostat]; conditions: top dose 20 µM; top dose inferred
Procedure: as §1

[14] = compound: Cc1[nH]c(/C=C2\C(=O)Nc3ccc(S(=O)(=O)Cc4c(Cl)cccc4Cl)cc32)c(C)c1C(=O)N1CCC[C@@H]1CN1CCCC1 [PHA-665752]; conditions: top dose 2 µM
Procedure: as §1

[15] = top dose 1 µM, screen: GDSC drug entry 1218, top dose inferred
[16] = top dose 2.56 µM, screen: GDSC drug entry 163

ES7 (Ewing sarcoma, adherent)
AUC [1]: 0.973 | IC50 [1]: > 1020 nM | AUC [2]: 0.923 | IC50 [2]: > 2560 nM | AUC [3]: 0.87 | IC50 [3]: 9810 nM | AUC [4, 15]: 0.98 | IC50 [4, 15]: > 1000 nM | AUC [4, 16]: 0.839 | IC50 [4, 16]: 1820 nM | AUC [5]: 0.938 | IC50 [5]: > 2000 nM | AUC [6]: 0.86 | IC50 [6]: 224 nM | AUC [7]: 0.926 | IC50 [7]: > 20000 nM | AUC [8]: 0.529 | IC50 [8]: 9.65 nM | AUC [9]: 0.027 | IC50 [9]: < 20 nM | AUC [10]: 0.445 | IC50 [10]: 0.551 nM | AUC [11]: 0.976 | IC50 [11]: > 10000 nM | AUC [12]: 0.984 | IC50 [12]: > 16000 nM | AUC [13]: 0.166 | IC50 [13]: 115 nM | AUC [14]: 0.97 | IC50 [14]: > 2000 nM

ES-2 (ovary, adherent)
AUC [1]: 0.991 | IC50 [1]: > 1020 nM | AUC [2]: 0.991 | IC50 [2]: > 2560 nM | AUC [3]: 0.877 | IC50 [3]: 7990 nM | AUC [4, 15]: 0.99 | IC50 [4, 15]: > 1000 nM | AUC [4, 16]: 0.991 | IC50 [4, 16]: > 2560 nM | AUC [5]: 0.991 | IC50 [5]: > 2000 nM | AUC [6]: 0.861 | IC50 [6]: 176 nM | AUC [7]: 0.975 | IC50 [7]: > 20000 nM | AUC [8]: 0.93 | IC50 [8]: > 128 nM | AUC [9]: 0.034 | IC50 [9]: < 20 nM | AUC [10]: 0.729 | IC50 [10]: 3.18 nM | AUC [11]: 0.98 | IC50 [11]: > 10000 nM | AUC [12]: 0.963 | IC50 [12]: > 16000 nM | AUC [13]: 0.25 | IC50 [13]: 267 nM | AUC [14]: 0.99 | IC50 [14]: > 2000 nM

EW-3 (Ewing sarcoma, adherent)
AUC [1]: 0.96 | IC50 [1]: > 1020 nM | AUC [2]: 0.802 | IC50 [2]: 1470 nM | AUC [3]: 0.91 | IC50 [3]: > 10000 nM | AUC [4, 15]: 0.871 | IC50 [4, 15]: > 1000 nM | AUC [4, 16]: 0.972 | IC50 [4, 16]: > 2560 nM | AUC [5]: 0.957 | IC50 [5]: > 2000 nM | AUC [6]: 0.87 | IC50 [6]: > 256 nM | AUC [7]: 0.825 | IC50 [7]: 14400 nM | AUC [8]: 0.855 | IC50 [8]: 125 nM | AUC [9]: 0.082 | IC50 [9]: < 20 nM | AUC [10]: 0.917 | IC50 [10]: > 12.5 nM | AUC [11]: 0.981 | IC50 [11]: > 10000 nM | AUC [12]: 0.982 | IC50 [12]: > 16000 nM | AUC [13]: 0.338 | IC50 [13]: 413 nM | AUC [14]: 0.957 | IC50 [14]: > 2000 nM

EW-13 (Ewing sarcoma, suspension)
AUC [1]: 0.985 | IC50 [1]: > 1020 nM | AUC [2]: 0.971 | IC50 [2]: > 2560 nM | AUC [3]: 0.981 | IC50 [3]: > 10000 nM | AUC [4, 15]: 0.779 | IC50 [4, 15]: 455 nM | AUC [4, 16]: 0.801 | IC50 [4, 16]: 1410 nM | AUC [5]: 0.985 | IC50 [5]: > 2000 nM | AUC [6]: 0.953 | IC50 [6]: > 256 nM | AUC [7]: 0.984 | IC50 [7]: > 20000 nM | AUC [8]: 0.765 | IC50 [8]: 51.7 nM | AUC [9]: 0.152 | IC50 [9]: 22.9 nM | AUC [10]: 0.966 | IC50 [10]: > 12.5 nM | AUC [11]: 0.986 | IC50 [11]: > 10000 nM | AUC [12]: 0.985 | IC50 [12]: > 16000 nM | AUC [13]: 0.526 | IC50 [13]: 1490 nM | AUC [14]: 0.972 | IC50 [14]: > 2000 nM

Reference: the supplement of paper PMC4967469
